First the molecules themselves.
T1: RBFOX1 RRM (Homo sapiens, UniProt Q9NWB1 109-208)
T1 sequence: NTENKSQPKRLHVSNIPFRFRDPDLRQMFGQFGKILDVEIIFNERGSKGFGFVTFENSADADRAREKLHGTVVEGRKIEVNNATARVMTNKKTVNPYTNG

B1: GGAGUAC (DNA:RNA)
RNA: GGGAGACCGGAAUUCAGAUUGUCCGGAGUACUUAAAUCCCGUCGUAGCCACCA
DNA 1: CAATCTGAATTCCGGTCTCCC
DNA 2: TGGTGGCTACGACGGGATT
B2: CUUGAAA (DNA:RNA)
RNA: B1 RNA with G25C, G26U, A27U, U29A, C31A
DNA 1: CAATCTGAATTCCGGTCTCCC
DNA 2: TGGTGGCTACGACGGGATT
B3: CCUCUUG (DNA:RNA)
RNA: B1 RNA with G25C, G26C, A27U, G28C, A30U, C31G
DNA 1: CAATCTGAATTCCGGTCTCCC
DNA 2: TGGTGGCTACGACGGGATT
B4: AAGUCUG (DNA:RNA)
RNA: GGGAGACCGGAAUUCAGAUUGUCCAAGUCUGUUAAAUCCCGUCGUAGCCACCA
DNA 1: CAATCTGAATTCCGGTCTCCC
DNA 2: TGGTGGCTACGACGGGATT
B5: AAGUCAC (DNA:RNA)
RNA: B4 RNA with U30A, G31C
DNA 1: CAATCTGAATTCCGGTCTCCC
DNA 2: TGGTGGCTACGACGGGATT
B6: UGGUCCC (DNA:RNA)
RNA: B4 RNA with A25U, A26G, U30C, G31C
DNA 1: CAATCTGAATTCCGGTCTCCC
DNA 2: TGGTGGCTACGACGGGATT
B7: AAUACAU (DNA:RNA)
RNA: B4 RNA with G27U, U28A, U30A, G31U
DNA 1: CAATCTGAATTCCGGTCTCCC
DNA 2: TGGTGGCTACGACGGGATT
B8: UAUGAGC (DNA:RNA)
RNA: B1 RNA with G25U, G26A, A27U, U29A, A30G
DNA 1: CAATCTGAATTCCGGTCTCCC
DNA 2: TGGTGGCTACGACGGGATT
B9: AGAUCGC (DNA:RNA)
RNA: B4 RNA with A26G, G27A, U30G, G31C
DNA 1: CAATCTGAATTCCGGTCTCCC
DNA 2: TGGTGGCTACGACGGGATT
B10: AUUCCCC (DNA:RNA)
RNA: B4 RNA with A26U, G27U, U28C, U30C, G31C
DNA 1: CAATCTGAATTCCGGTCTCCC
DNA 2: TGGTGGCTACGACGGGATT
B11: UAAUGAA (DNA:RNA)
RNA: B4 RNA with A25U, G27A, C29G, U30A, G31A
DNA 1: CAATCTGAATTCCGGTCTCCC
DNA 2: TGGTGGCTACGACGGGATT
B12: GUAAGUC (DNA:RNA)
RNA: B1 RNA with G26U, G28A, U29G, A30U
DNA 1: CAATCTGAATTCCGGTCTCCC
DNA 2: TGGTGGCTACGACGGGATT
B13: AGGGAAA (DNA:RNA)
RNA: B1 RNA with G25A, A27G, U29A, C31A
DNA 1: CAATCTGAATTCCGGTCTCCC
DNA 2: TGGTGGCTACGACGGGATT
B14: UAGAGAG (DNA:RNA)
RNA: B4 RNA with A25U, U28A, C29G, U30A
DNA 1: CAATCTGAATTCCGGTCTCCC
DNA 2: TGGTGGCTACGACGGGATT
B15: GCGAGGG (DNA:RNA)
RNA: B4 RNA with A25G, A26C, U28A, C29G, U30G
DNA 1: CAATCTGAATTCCGGTCTCCC
DNA 2: TGGTGGCTACGACGGGATT
B16: CGCUGAG (DNA:RNA)
RNA: B4 RNA with A25C, A26G, G27C, C29G, U30A
DNA 1: CAATCTGAATTCCGGTCTCCC
DNA 2: TGGTGGCTACGACGGGATT
B17: CCCGUCG (DNA:RNA)
RNA: B1 RNA with G25C, G26C, A27C, A30C, C31G
DNA 1: CAATCTGAATTCCGGTCTCCC
DNA 2: TGGTGGCTACGACGGGATT
B18: GAUCAUG (DNA:RNA)
RNA: B4 RNA with A25G, G27U, U28C, C29A
DNA 1: CAATCTGAATTCCGGTCTCCC
DNA 2: TGGTGGCTACGACGGGATT
B19: AUACGCU (DNA:RNA)
RNA: B4 RNA with A26U, G27A, U28C, C29G, U30C, G31U
DNA 1: CAATCTGAATTCCGGTCTCCC
DNA 2: TGGTGGCTACGACGGGATT
B20: AGGCUCC (DNA:RNA)
RNA: B1 RNA with G25A, A27G, G28C, A30C
DNA 1: CAATCTGAATTCCGGTCTCCC
DNA 2: TGGTGGCTACGACGGGATT

Changes are numbered by the printed parent chain; changes in the protein carry UniProt numbers. The list shows a part of the results.

The assay addresses T1, RBFOX1 RRM. In words: EMSA; HiTS-Eq, 1 nM pool, 10 min; buffer printed only for the single-RNA assays: 10 mM Tris pH 7.5, 150 mM NaCl, 3.4 mM EDTA, 0.001% NP-40, 30 C. As to conditions: tags: His6 N-terminal (pET28a); label: 5' 32P. In a few lines: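 Purified wild-type or mutant RbFox RRM at increasing concentrations was equilibrated with 1 nM of 5′-radiolabelled RNA carrying 7 randomized nucleotides for 10 min in 50 µL. Unbound RNA was separated by 8% native PAGE and sequenced. Relative association constants came from read-count changes of each RNA species compared with the control reaction, normalised to the cognate motif.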
(In general: In EMSA bound probe runs differently from free probe, usually more slowly.)
Regarding B1, the binding signal is 0.0247 KA relative to UGCAUGU. On to B2, for which the binding signal is 0.00785 KA relative to UGCAUGU. For B3 the value was 0.00933 KA relative to UGCAUGU; for B4, 0.0131 KA relative to UGCAUGU; for B5, 0.00546 KA relative to UGCAUGU. For B6 the value was 0.0149 KA relative to UGCAUGU; for B7, 0.000474 KA relative to UGCAUGU; for B8, 0.0111 KA relative to UGCAUGU. For B9 the value was 0.0142 KA relative to UGCAUGU; for B10, 0.000201 KA relative to UGCAUGU; for B11, 0.0113 KA relative to UGCAUGU. For the molecule B12, the binding signal is 0.00957 KA relative to UGCAUGU. For B13 the value was 0.0157 KA relative to UGCAUGU; for B14, 0.0107 KA relative to UGCAUGU; for B15, 0.0158 KA relative to UGCAUGU.

In the case of B16, the binding signal is 0.0264 KA relative to UGCAUGU. In the case of B17 it was 0.00255 KA relative to UGCAUGU; in that of B18, 0.0126 KA relative to UGCAUGU.

B19: the binding signal was 0.00243 KA relative to UGCAUGU.

On to B20, for which the binding signal was 0.00607 KA relative to UGCAUGU.

Values taken from PMC9911399, “Two distinct binding modes provide the RNA-binding protein RbFox with extraordinary sequence specificity”.
